The results in this text go back to a collection of fitness landscapes (doi:10.1016/j.celrep.2020.107928).

First the molecules themselves.
B1: Caulobacter ParB omega fusion; a variant is named by its letters at X, in order, B8GW30 (parent)
chain: MESVVVGEPGMSEGRRGLGRGLSALLGEVDAAPAQAPGEQLGGSREAPIEILQRNPDQPRRTFREEDLEDLSNSIREKGVLQPILVRPSPDTAGEYQIVAGERAWRAAQRAGLKTVPIMVRELDDLAVLEIGIIENVQRADLNVLEEALSYKVLMEKFERTQENIAQTIGKSXSHVANXMRLLXLPDEVQSYLVSGELTAXHARAIAAAADPVALAKQIIEGGLSVRETEALARKAPNLSAGKSKGGRPPRVKDTDTQALESDLSSVLGLDVSIDHRGSTGTLTITYATLEQLDDLCNRLTRGI

In all, about 81,000 sequences were measured (“one-hybrid fitness for binding parS DNA”: median about -0.17, highest 2% from about 0.51 on). The list shows a part of the results.

This experiment covers variants of B1. The experiment is described as follows: one-hybrid fitness for binding parS DNA (scaled: cognate 1, non-cognate 0); higher = stronger binding. Particulars: with parS DNA site. The method in brief: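 In E. coli USO, a HIS3 reporter with its site placed 19 bp from the promoter was used to select Caulobacter ParB variants randomised at four specificity codons. Growth lasted 48 hours at 37°C on histidine-free M9 containing 0.1 mM IPTG and 5 mM 3-AT. Fitness was taken as the log change in variant-to-wild-type read ratio from Illumina sequencing of pre- and post-selection plasmids, rescaled between the non-cognate and cognate sites.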
Regarding QGKQ, the “one-hybrid fitness for binding parS DNA” value was not above 0.2.
Consider PYNY, for which the “one-hybrid fitness for binding parS DNA” value is not above 0.2.
The result for QQFG reads 0.335; that for FKTL, not above 0.2; that for QGKV, not above 0.2.
The result for PAWT reads not above 0.2; that for MDTT, not above 0.2.
With RRIS the figure was 0.753; with EYWG, not above 0.2.
With YARS, the “one-hybrid fitness for binding parS DNA” value was not above 0.2.
With NKKM the figure was not above 0.2; with RLNC, 0.94.
The result for NIPG reads not above 0.2; that for KTFC, not above 0.2.
The result for WYQT reads not above 0.2; that for LTDL, not above 0.2.
On to QHKM, for which the “one-hybrid fitness for binding parS DNA” value is not above 0.2.
As for THSV, the “one-hybrid fitness for binding parS DNA” value was not above 0.2.
The result for VCCW reads not above 0.2; that for MYNT, not above 0.2.
The result for RRVA reads 0.78; that for TECA, not above 0.2.
The result for MWQG reads not above 0.2.
As for QVQA, the “one-hybrid fitness for binding parS DNA” value is not above 0.2.
With PPIC the figure was not above 0.2.
The result for PEQL reads not above 0.2; that for SKSP, not above 0.2.
With HWRC the figure was not above 0.2.
On to AYEW, for which the “one-hybrid fitness for binding parS DNA” value was not above 0.2.
With VWKC the figure was not above 0.2.
The result for STPC reads not above 0.2.
With SLTA the figure was not above 0.2; with MYHG, not above 0.2; with GLMS, not above 0.2.
QHNT: the “one-hybrid fitness for binding parS DNA” value was not above 0.2.
The result for SGPS reads not above 0.2; that for MCTG, not above 0.2; that for WFLL, not above 0.2.
With HLLT the figure was not above 0.2; with RCEI, not above 0.2.
For the variant QFVG, the “one-hybrid fitness for binding parS DNA” value is not above 0.2.
The result for QIKF reads not above 0.2; that for SYMT, not above 0.2; that for RMKI, not above 0.2.
With WNMS the figure was not above 0.2.
Regarding IHCS, the “one-hybrid fitness for binding parS DNA” value was not above 0.2.
With FCAT the figure was not above 0.2; with HKHF, not above 0.2; with RPLV, not above 0.2.
The result for WVGG reads not above 0.2; that for QTQV, not above 0.2; that for QTVD, not above 0.2.
The result for HYYD reads not above 0.2; that for GKHS, not above 0.2.
Take MLQN: the “one-hybrid fitness for binding parS DNA” value was not above 0.2.
With EAKG the figure was not above 0.2.
In the case of MWDF, the “one-hybrid fitness for binding parS DNA” value is not above 0.2.
The result for VVDA reads not above 0.2; that for GREL, not above 0.2; that for WEPR, not above 0.2.
In the case of LSLK, the “one-hybrid fitness for binding parS DNA” value is not above 0.2.
For the variant YRDA, the “one-hybrid fitness for binding parS DNA” value was not above 0.2.
The result for HPTV reads not above 0.2; that for QWWS, not above 0.2.
In the case of KYRL, the “one-hybrid fitness for binding parS DNA” value was not above 0.2.
The result for HNQS reads not above 0.2.
With YIFC the figure was not above 0.2; with NRSM, not above 0.2.
With RKIM the figure was 0.244; with VHAS, not above 0.2.
Regarding SFGI, the “one-hybrid fitness for binding parS DNA” value is not above 0.2.
With TTSE the figure was not above 0.2; with KQDV, not above 0.2.
For the variant SMMS, the “one-hybrid fitness for binding parS DNA” value is not above 0.2.
With MNVA the figure was not above 0.2; with AVSF, not above 0.2; with PMWS, 0.221.
The result for VLGC reads not above 0.2; that for IHAG, not above 0.2.
The result for RPCC reads not above 0.2; that for SCKN, not above 0.2; that for HKPC, not above 0.2.
In the case of IAPS, the “one-hybrid fitness for binding parS DNA” value was not above 0.2.
Consider FPAG, for which the “one-hybrid fitness for binding parS DNA” value is not above 0.2.
With GCAC the figure was not above 0.2.
With ANSK the figure was not above 0.2; with ACDV, not above 0.2.
With RGKG the figure was 0.896; with SGMN, not above 0.2; with YSGS, not above 0.2.
Consider LLAF, for which the “one-hybrid fitness for binding parS DNA” value was not above 0.2.
The result for LGMR reads not above 0.2; that for MRFL, not above 0.2.
PGNG: the “one-hybrid fitness for binding parS DNA” value was not above 0.2.
With MAKG the figure was not above 0.2.
With NDGR the figure was not above 0.2.
The result for IVNM reads not above 0.2.
Regarding KMDG, the “one-hybrid fitness for binding parS DNA” value was not above 0.2.
The result for PTFL reads not above 0.2.
The result for QAYC reads not above 0.2; that for EAPF, not above 0.2; that for MWLT, not above 0.2.
The result for ETER reads not above 0.2; that for TTYT, not above 0.2.
For the variant TKNL, the “one-hybrid fitness for binding parS DNA” value was not above 0.2.
With SVRF the figure was not above 0.2; with FMLL, not above 0.2.
The result for LGLA reads not above 0.2; that for QQKV, not above 0.2; that for AILN, not above 0.2.
The result for FHAP reads not above 0.2; that for WKPV, not above 0.2; that for NNAG, not above 0.2.
Turning to TTTM, the “one-hybrid fitness for binding parS DNA” value was not above 0.2.
With CNDT the figure was not above 0.2.
With DCAC the figure was not above 0.2.
With SAVC, the “one-hybrid fitness for binding parS DNA” value was not above 0.2.
With RIFS the figure was 0.995; with AMDN, not above 0.2; with PWLE, not above 0.2.
For WYYR, the “one-hybrid fitness for binding parS DNA” value was not above 0.2.
Turning to QCCT, the “one-hybrid fitness for binding parS DNA” value was determined as 0.282.
The result for ITTY reads not above 0.2; that for MHAR, not above 0.2; that for RWND, not above 0.2.
The result for CHLH reads not above 0.2.
On to VLGP, for which the “one-hybrid fitness for binding parS DNA” value is not above 0.2.
Consider VKQT, for which the “one-hybrid fitness for binding parS DNA” value is not above 0.2.
The result for TCWT reads not above 0.2.
In the case of QDPP, the “one-hybrid fitness for binding parS DNA” value was not above 0.2.
With NEAT the figure was not above 0.2; with TINF, not above 0.2.
With LHYF, the “one-hybrid fitness for binding parS DNA” value was not above 0.2.
Turning to PYSY, the “one-hybrid fitness for binding parS DNA” value was not above 0.2.
The result for KPMC reads not above 0.2.
With CCTC the figure was not above 0.2; with QPQN, not above 0.2.
With YPSV the figure was not above 0.2; with RKLG, 0.964.
In the case of SVPG, the “one-hybrid fitness for binding parS DNA” value was not above 0.2.
Consider EYES, for which the “one-hybrid fitness for binding parS DNA” value is not above 0.2.
The result for NMTD reads not above 0.2; that for LLSV, not above 0.2.
In the case of RHMN, the “one-hybrid fitness for binding parS DNA” value worked out at 0.389.
The result for TTWH reads not above 0.2; that for DKTE, not above 0.2.
Take MMYG: the “one-hybrid fitness for binding parS DNA” value is not above 0.2.
RGQI: the “one-hybrid fitness for binding parS DNA” value was not above 0.2.
Take CSKF: the “one-hybrid fitness for binding parS DNA” value was not above 0.2.
On to CNDW, for which the “one-hybrid fitness for binding parS DNA” value is not above 0.2.
The result for KLQR reads not above 0.2; that for MQMR, not above 0.2; that for EIAS, not above 0.2.
